The campaign covered roughly 2,300 compounds. About 330 (14%) showed activity.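 How the source made its calls: active = median modified Z-score above 1.96; inactive = 1.96 or below.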 This is a selection; strong and weak results do not stand in their true shares.

The test system of the test is HepG2 Srxn1-GFP reporter cells (+30 nM CDDO-Me). Nature of the test: Srxn1-GFP intensity median modified Z-score relative to plate median; higher = stronger NRF2 / oxidative stress reporter activation, active = hit call of the paper. Particulars: 10 µM; exposure time: 24h. Summed up: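 Values give the median, over replicates, of the modified Z-score of GFP intensity on each plate. HepG2 Srxn1-GFP BAC reporter cells were co-treated for 24 h with an NRF2 activator at 30 nM and compound at 10 μM (≤0.1% DMSO) in three replicate plates, then analysed per cell for cytoplasmic GFP on confocal images with at least 100 cells. Scaling used 1.4826 × median absolute deviation.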
Regarding `Cc1cc(=NC(=O)C2C(=O)c3ccccc3S(=O)(=O)N2C)[nH]o1` (centres undefined) [euspeclibcmpd552], the “Srxn1-GFP intensity median modified Z-score” value was inactive: -0.344.

On to `CCC(NC(C)C)C(O)c1ccc(O)c(O)c1` (centres undefined) [euspeclibcmpd894], for which the “Srxn1-GFP intensity median modified Z-score” value is inactive: -0.845.

As to `CCC(Cc1c(I)cc(I)c(N)c1I)C(=O)O` (centres undefined) [euspeclibcmpd634], the “Srxn1-GFP intensity median modified Z-score” value is inactive: 0.149.

On to `NCCCCNCCCN` [euspeclibcmpd1502], for which the “Srxn1-GFP intensity median modified Z-score” value is inactive: -0.202.

`CC(=O)C1CCC2C3=CC=C4CC(=O)CC[C@@]4(C)C3CC[C@]12C` (some centres undefined) [euspeclibcmpd815]: the “Srxn1-GFP intensity median modified Z-score” value is inactive: 1.45.

Turning to `CC(C)(C(=O)c1cccnc1)c1cccnc1` [euspeclibcmpd907], the “Srxn1-GFP intensity median modified Z-score” value was inactive: 0.0206.

In the case of `CNCCCN1c2ccccc2Sc2ccccc21`, the “Srxn1-GFP intensity median modified Z-score” value is active: 2.13.

`CC(=O)N(O)CCCCCNC(=O)CCC(=O)N(O)CCCCCNC(=O)CCC(=O)N(O)CCCCCN` [euspeclibcmpd84]: the “Srxn1-GFP intensity median modified Z-score” value was inactive: -1.71.

`CC1CCc2c(N3CCC(O)CC3)c(F)cc3c(=O)c(C(=O)O)cn1c23` (centres undefined) [euspeclibcmpd1083]: the “Srxn1-GFP intensity median modified Z-score” value is inactive: -0.148.

`O=c1c2ccccc2oc2ccccc12` [euspeclibcmpd2406]: the “Srxn1-GFP intensity median modified Z-score” value is inactive: -0.21.

For `NC12CC3CC(CC(C3)C1)C2` [euspeclibcmpd17], the “Srxn1-GFP intensity median modified Z-score” value was inactive: -0.0376.

On to `N=c1[nH]c(=O)c2ncn(COC(CO)CO)c2[nH]1` [euspeclibcmpd487], for which the “Srxn1-GFP intensity median modified Z-score” value was inactive: 0.251.

`Cc1cc(=O)n(-c2ccccc2)n1C` [euspeclibcmpd26]: the “Srxn1-GFP intensity median modified Z-score” value is inactive: 0.212.

As to `CC=C(C1=CC(=O)C(OC)=CC1=O)c1ccccc1` [euspeclibcmpd1693], the “Srxn1-GFP intensity median modified Z-score” value was active: 3.26.

On to `CCCCCCCCCCCCCCCC(=O)NCCO` [euspeclibcmpd1097], for which the “Srxn1-GFP intensity median modified Z-score” value is inactive: -0.436.

Take `O=C(O)c1ccccc1Nc1ccccc1` [euspeclibcmpd1737]: the “Srxn1-GFP intensity median modified Z-score” value was inactive: -0.16.

As for `NS(=O)(=O)c1cc(C(=O)O)c(NCc2ccco2)cc1Cl` [euspeclibcmpd135], the “Srxn1-GFP intensity median modified Z-score” value is inactive: -0.176.

For `COc1ccc2ccc(=O)oc2c1` [euspeclibcmpd2146], the “Srxn1-GFP intensity median modified Z-score” value is inactive: 0.175.

For `S=C1SCN(Cc2ccccc2)CN1Cc1ccccc1` [euspeclibcmpd1200], the “Srxn1-GFP intensity median modified Z-score” value was active: 10.

As for `O=C(O)c1cc2cc(Cl)ccc2[nH]1` [euspeclibcmpd2020], the “Srxn1-GFP intensity median modified Z-score” value is active: 1.97.

Regarding `CCn1c2cc(=N)ccc-2c2ccc(N)cc2c1-c1ccccc1` [euspeclibcmpd1148], the “Srxn1-GFP intensity median modified Z-score” value was active: 4.33.

On to `Cc1cc(C2CCCCC2)n(O)c(=O)c1` [euspeclibcmpd64], for which the “Srxn1-GFP intensity median modified Z-score” value was inactive: 0.

`O=C(CCCl)NCc1ccccc1` [euspeclibcmpd1227]: the “Srxn1-GFP intensity median modified Z-score” value was inactive: -0.57.

On to `NS(=O)(=O)c1cc2c(cc1Cl)N=CNS2(=O)=O` [euspeclibcmpd57], for which the “Srxn1-GFP intensity median modified Z-score” value is inactive: 0.155.

Values taken from the supplement of paper PMC10498489.
